# Reference: a collection of fitness landscapes (doi:10.1016/j.celrep.2020.107928)
# Whole data set: some 81,000 sequences, median “one-hybrid fitness for binding NBS DNA” near -0.1, cut for the highest 2% near 0.36. The list shows a part of the results.
# B1: Caulobacter ParB omega fusion; a variant is named by its letters at X, in order, B8GW30 (parent)
# chain: MESVVVGEPGMSEGRRGLGRGLSALLGEVDAAPAQAPGEQLGGSREAPIEILQRNPDQPRRTFREEDLEDLSNSIREKGVLQPILVRPSPDTAGEYQIVAGERAWRAAQRAGLKTVPIMVRELDDLAVLEIGIIENVQRADLNVLEEALSYKVLMEKFERTQENIAQTIGKSXSHVANXMRLLXLPDEVQSYLVSGELTAXHARAIAAAADPVALAKQIIEGGLSVRETEALARKAPNLSAGKSKGGRPPRVKDTDTQALESDLSSVLGLDVSIDHRGSTGTLTITYATLEQLDDLCNRLTRGI
# Variants of: B1
# Assay: one-hybrid fitness for binding NBS DNA (the Noc-binding site; scaled: cognate 1, non-cognate 0); higher = stronger binding
# Details: with NBS DNA site
# Outline: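 Values were rescaled so that cognate is 1 and non-cognate is 0. Each is a fitness, the log change in a variant's read ratio to wild type from Illumina reads of plasmids before and after selection, with three replicate libraries pooled and variants under 10 reads dropped. Selection of the Caulobacter ParB libraries, four specificity codons randomised, used E. coli USO with a HIS3 reporter, site 19 bp from the promoter, on M9-minus-histidine with 0.1 mM IPTG and 5 mM 3-AT for 48 hours at 37°C.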
row,Variant,one-hybrid fitness for binding NBS DNA
1,RCYA,0.24
2,EALV,≤ 0.2
3,TKCL,≤ 0.2
4,AYLR,≤ 0.2
5,QIRD,≤ 0.2
6,WVGR,≤ 0.2
7,PPDF,≤ 0.2
8,YKAG,≤ 0.2
9,KGNR,≤ 0.2
10,RNPI,≤ 0.2
11,RAVA,≤ 0.2
12,NTTK,≤ 0.2
13,MCSL,≤ 0.2
14,GKMG,≤ 0.2
15,VDYT,≤ 0.2
16,RCMR,0.461
17,QYAI,≤ 0.2
18,WLHF,≤ 0.2
19,RNMH,≤ 0.2
20,KLSM,≤ 0.2
21,FQVT,≤ 0.2
22,VHSN,≤ 0.2
23,KFRC,≤ 0.2
24,SEPS,≤ 0.2

row,Variant,one-hybrid fitness for binding NBS DNA
1,VQLA,≤ 0.2
2,GVGS,≤ 0.2
3,SITG,≤ 0.2
4,FMPK,0.314
5,RHGQ,≤ 0.2
6,QANC,≤ 0.2
7,DALR,≤ 0.2
8,ILYY,≤ 0.2
9,AHGS,≤ 0.2
10,CDTD,≤ 0.2
11,TPYP,≤ 0.2
12,IKPC,≤ 0.2
13,NLAA,≤ 0.2
14,PTWS,≤ 0.2
15,GTKI,≤ 0.2
16,IHSQ,≤ 0.2
17,CFAN,≤ 0.2
18,GYIS,≤ 0.2
19,GATQ,≤ 0.2
20,PKSV,≤ 0.2
21,CFSL,≤ 0.2
22,TPCQ,≤ 0.2
23,NNGS,≤ 0.2
24,NIPL,≤ 0.2

row,Variant,one-hybrid fitness for binding NBS DNA
1,SRDL,≤ 0.2
2,REAG,≤ 0.2
3,CVEL,≤ 0.2
4,RDNR,≤ 0.2
5,CVHP,≤ 0.2
6,EVMM,≤ 0.2
7,PCTA,≤ 0.2
8,QIID,≤ 0.2
9,ECTD,≤ 0.2
10,HIPR,≤ 0.2
11,AGHD,≤ 0.2
12,TLLI,≤ 0.2
13,TVMY,≤ 0.2
14,PLYR,≤ 0.2
15,GVTS,≤ 0.2
16,SCLA,≤ 0.2
17,EGAK,≤ 0.2
18,PEES,≤ 0.2
19,HRTL,≤ 0.2
20,RHVC,≤ 0.2
21,EAFV,0.24
22,TRDL,≤ 0.2
23,NNCC,≤ 0.2
24,APWW,≤ 0.2

row,Variant,one-hybrid fitness for binding NBS DNA
1,VVNR,≤ 0.2
2,EWRT,≤ 0.2
3,PHQV,≤ 0.2
4,QRCS,0.693
5,QQVE,≤ 0.2
6,DLRR,≤ 0.2
7,ISLF,≤ 0.2
8,ETRC,≤ 0.2
9,VCHR,≤ 0.2
10,GSNI,≤ 0.2
11,CAFR,≤ 0.2
12,QWCL,≤ 0.2
13,LTCV,≤ 0.2
14,CDYR,≤ 0.2
15,CTCA,≤ 0.2
16,LSEC,≤ 0.2
17,TART,≤ 0.2
18,VVTT,≤ 0.2
19,RFQE,≤ 0.2
20,VYRG,≤ 0.2
21,HKYR,≤ 0.2
22,WYRV,≤ 0.2
23,YFNS,≤ 0.2
24,DLKP,≤ 0.2

row,Variant,one-hybrid fitness for binding NBS DNA
1,SNGD,≤ 0.2
2,TKKM,≤ 0.2
3,PHSL,≤ 0.2
4,QVNY,≤ 0.2
5,TSTA,≤ 0.2
6,LISS,≤ 0.2
7,QQDV,≤ 0.2
8,TKQS,≤ 0.2
9,ARLT,≤ 0.2
10,PQAF,≤ 0.2
11,HYRA,≤ 0.2
12,SFEA,≤ 0.2
13,GYDS,≤ 0.2
14,MRTR,≤ 0.2
15,GRLT,≤ 0.2
16,DGDN,≤ 0.2
17,ICLN,≤ 0.2
18,RQGR,0.447
19,KFFW,≤ 0.2
20,ASFW,≤ 0.2
21,RPRW,≤ 0.2
22,LITI,≤ 0.2
23,TRPS,≤ 0.2
24,MHTS,≤ 0.2

row,Variant,one-hybrid fitness for binding NBS DNA
1,RVLS,0.262
2,KGNH,≤ 0.2
3,PARW,≤ 0.2
4,CPME,≤ 0.2
5,HTDC,≤ 0.2
6,SNRG,≤ 0.2
7,QGRG,≤ 0.2
8,LRGW,≤ 0.2
9,YVYW,≤ 0.2
10,QSWT,0.348
11,QIRL,≤ 0.2
12,LAQT,≤ 0.2
13,RGWI,≤ 0.2
14,ALGC,≤ 0.2
15,MYGE,≤ 0.2
16,MPSL,≤ 0.2
17,APVF,≤ 0.2
18,QSTE,≤ 0.2
19,VETG,≤ 0.2
20,NAPV,≤ 0.2
21,DLSF,≤ 0.2
22,CYCR,≤ 0.2
23,MRFT,≤ 0.2
24,FCTS,≤ 0.2

row,Variant,one-hybrid fitness for binding NBS DNA
1,NKHR,≤ 0.2
2,WSDW,≤ 0.2
3,RKHK,≤ 0.2
4,HDFF,≤ 0.2
5,KGQV,≤ 0.2
6,NCNF,≤ 0.2
7,WDHS,≤ 0.2
8,PRIL,≤ 0.2
9,YIWG,≤ 0.2
10,ELPA,≤ 0.2
11,EGQA,≤ 0.2
12,YRRY,≤ 0.2
13,RMNM,≤ 0.2
14,LSHI,≤ 0.2
15,MAQY,≤ 0.2
16,RPIF,≤ 0.2
17,CTPC,≤ 0.2
18,RRFW,≤ 0.2
19,VRNC,≤ 0.2
20,LFRQ,≤ 0.2
21,AAWG,≤ 0.2
22,PEVG,≤ 0.2
23,FTCV,≤ 0.2
24,QICS,0.216

row,Variant,one-hybrid fitness for binding NBS DNA
1,IRLD,≤ 0.2
2,MHAL,≤ 0.2
3,AMAW,≤ 0.2
4,QEPL,≤ 0.2
5,GNYC,≤ 0.2
6,DNLL,≤ 0.2
7,DMPV,≤ 0.2
8,QKEL,≤ 0.2
9,RWHN,≤ 0.2
10,HRLS,≤ 0.2
11,RKDH,0.401
12,KLMA,≤ 0.2
13,GARK,≤ 0.2
14,HEAS,≤ 0.2
15,VEPL,≤ 0.2
16,HYSL,≤ 0.2
17,HGRK,≤ 0.2
18,SRCA,≤ 0.2
19,GMTS,≤ 0.2
20,LRNT,0.22
21,AYKY,≤ 0.2
22,MNAP,≤ 0.2
23,RTPL,≤ 0.2
24,DRNP,≤ 0.2

row,Variant,one-hybrid fitness for binding NBS DNA
1,GTFS,≤ 0.2
2,SMCH,≤ 0.2
3,NLAL,≤ 0.2
4,RYRT,0.664
5,AMFD,≤ 0.2
6,QTGV,0.261
7,FIKT,≤ 0.2
8,YGDG,≤ 0.2
9,CFKT,≤ 0.2
10,YCLE,0.263
11,KAQH,≤ 0.2
12,AVVR,≤ 0.2
13,TRQL,≤ 0.2
14,ACPG,≤ 0.2
15,PNRE,≤ 0.2
16,YHLM,≤ 0.2
17,YWRE,≤ 0.2
18,LAGR,≤ 0.2
19,EVVI,≤ 0.2
20,QCIT,0.432
21,CILR,≤ 0.2
22,HCVV,≤ 0.2
23,PHQR,≤ 0.2
24,EANR,≤ 0.2

row,Variant,one-hybrid fitness for binding NBS DNA
1,ATGI,≤ 0.2
2,HERT,≤ 0.2
3,MWPC,≤ 0.2
4,AYFW,≤ 0.2
5,HHKG,≤ 0.2
6,SSQR,≤ 0.2
7,FVIS,≤ 0.2
8,YRVA,≤ 0.2
9,VVNL,≤ 0.2
10,DPAR,≤ 0.2
11,TPPS,≤ 0.2
12,TFRF,≤ 0.2
13,DRNN,≤ 0.2
14,YMMS,≤ 0.2
15,IYQR,≤ 0.2
16,KVLM,≤ 0.2
17,PGTD,≤ 0.2
18,VCLC,≤ 0.2
19,QMGN,≤ 0.2
20,AQKR,0.243
21,SCST,≤ 0.2
22,LEPN,≤ 0.2
23,DLGG,≤ 0.2
24,WKFC,≤ 0.2

row,Variant,one-hybrid fitness for binding NBS DNA
1,TVNV,≤ 0.2
2,KRHN,≤ 0.2
3,NDSA,≤ 0.2
4,GWVA,≤ 0.2
5,HHPH,≤ 0.2
6,VWQR,≤ 0.2
7,QLRK,0.336
8,FCLS,≤ 0.2
9,KSEV,≤ 0.2
10,IGSR,≤ 0.2
11,CAHS,≤ 0.2
12,HHHL,≤ 0.2
13,CRKN,≤ 0.2
14,MNLM,≤ 0.2
15,NDDR,≤ 0.2
16,KSGC,≤ 0.2
17,GAMM,≤ 0.2
18,NCLG,≤ 0.2
19,NQCC,≤ 0.2
20,NWYC,≤ 0.2
21,INHR,≤ 0.2
22,TARA,≤ 0.2
23,YPVI,≤ 0.2
24,IIHY,≤ 0.2

row,Variant,one-hybrid fitness for binding NBS DNA
1,TRVM,≤ 0.2
2,PNRR,≤ 0.2
3,DAGR,≤ 0.2
4,GNKN,≤ 0.2
5,FRKP,≤ 0.2
6,LQVT,≤ 0.2
7,QLPG,≤ 0.2
8,QTMW,≤ 0.2
9,HTRG,≤ 0.2
10,DADC,≤ 0.2
11,AHAA,≤ 0.2
12,SHEC,≤ 0.2
13,TYFC,≤ 0.2
14,ESDS,≤ 0.2
15,PTCR,≤ 0.2
16,RTFL,≤ 0.2
17,GERG,≤ 0.2
18,RLIT,0.23
19,LSDR,≤ 0.2
20,TPRF,≤ 0.2
21,EVKG,≤ 0.2
22,RLPA,≤ 0.2
23,TAMQ,≤ 0.2
24,VTVV,≤ 0.2

row,Variant,one-hybrid fitness for binding NBS DNA
1,YHCR,≤ 0.2
2,DDCR,≤ 0.2
3,VKTK,≤ 0.2
4,TFAA,≤ 0.2
5,VGYR,≤ 0.2
6,HCVE,≤ 0.2
7,SRSQ,≤ 0.2
8,SVQT,≤ 0.2
9,VMRG,≤ 0.2
10,SWHT,≤ 0.2
11,YQPN,≤ 0.2
12,VSMF,≤ 0.2
13,LYNY,≤ 0.2
14,RRDI,≤ 0.2
15,GIAR,≤ 0.2
16,KVQV,≤ 0.2
17,MRSK,≤ 0.2
18,VYDH,≤ 0.2
